{"source": "paper PMC4336329", "about": "(PLoS ONE, 2015)", "note": "The campaign covered roughly 310,000 compounds. About 2,200 (0.71%) showed an effect of 50% or more. Effects have a minus sign here. The list shows a part of the results.", "data": [{"biological_target": "human ether-à-go-go-related gene (hERG) potassium channel (human, UniProt Q12809)", "sequence (Q12809 whole entry, looked up)": "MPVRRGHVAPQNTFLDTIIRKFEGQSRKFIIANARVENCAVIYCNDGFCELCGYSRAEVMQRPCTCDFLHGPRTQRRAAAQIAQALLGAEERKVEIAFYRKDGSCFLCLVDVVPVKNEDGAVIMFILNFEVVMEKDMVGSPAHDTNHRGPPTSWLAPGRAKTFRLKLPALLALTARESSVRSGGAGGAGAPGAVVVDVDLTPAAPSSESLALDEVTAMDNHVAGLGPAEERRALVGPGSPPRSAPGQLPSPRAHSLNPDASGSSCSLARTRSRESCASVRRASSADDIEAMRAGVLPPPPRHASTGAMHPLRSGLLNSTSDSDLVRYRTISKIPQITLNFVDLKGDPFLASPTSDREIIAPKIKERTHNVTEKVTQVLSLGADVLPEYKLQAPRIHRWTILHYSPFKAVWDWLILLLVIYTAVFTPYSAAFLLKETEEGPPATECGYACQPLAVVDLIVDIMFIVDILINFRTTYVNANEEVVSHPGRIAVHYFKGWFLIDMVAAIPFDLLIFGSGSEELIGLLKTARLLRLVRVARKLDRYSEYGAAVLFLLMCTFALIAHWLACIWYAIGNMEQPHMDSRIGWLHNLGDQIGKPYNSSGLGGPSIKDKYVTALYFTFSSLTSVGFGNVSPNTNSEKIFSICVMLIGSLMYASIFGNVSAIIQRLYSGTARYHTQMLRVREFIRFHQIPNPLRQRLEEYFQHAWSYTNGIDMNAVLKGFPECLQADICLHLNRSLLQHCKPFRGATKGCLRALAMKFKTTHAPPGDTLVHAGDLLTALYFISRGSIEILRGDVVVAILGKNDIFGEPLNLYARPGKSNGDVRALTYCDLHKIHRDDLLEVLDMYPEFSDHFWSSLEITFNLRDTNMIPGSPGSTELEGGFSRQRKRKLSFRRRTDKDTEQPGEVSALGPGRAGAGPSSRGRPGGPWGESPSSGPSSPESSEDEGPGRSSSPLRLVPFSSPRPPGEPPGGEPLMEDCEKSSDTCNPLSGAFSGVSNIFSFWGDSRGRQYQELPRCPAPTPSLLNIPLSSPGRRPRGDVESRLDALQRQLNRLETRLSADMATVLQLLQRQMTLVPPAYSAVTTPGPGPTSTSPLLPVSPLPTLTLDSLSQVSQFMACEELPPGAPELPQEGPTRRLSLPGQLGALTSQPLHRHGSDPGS", "assay": "primary screen, population patch clamp on CHO cells stably expressing hERG", "units": {"hERG current change (%, negative = inhibition) at 1uM": "%"}, "values": [{"smiles": "Cn1c(SCC(=O)Nc2ccc3c(c2)OCCO3)nnc1C1CC1", "hERG current change (%, negative = inhibition) at 1uM": 7.4}, {"smiles": "O=C(CN1CCN(CC(=O)c2ccc(F)cc2)CC1)Nc1ccccc1Cl", "hERG current change (%, negative = inhibition) at 1uM": -48.2}, {"smiles": "Cc1ccc(CNC(=O)C2CCC(CNc3c(N4CCC(C)CC4)c(=O)c3=O)CC2)cc1", "note": "(stereo not shown)", "hERG current change (%, negative = inhibition) at 1uM": 8.21}, {"smiles": "CN1C(C(=O)NCc2cccc(C(F)(F)F)c2)CC2Cn3c(nc4ccccc43)C21", "note": "(stereo not shown)", "hERG current change (%, negative = inhibition) at 1uM": -6.41}, {"smiles": "O=C(COc1ccccc1)N/N=C/c1cc2c(cc1[N+](=O)[O-])OCO2", "hERG current change (%, negative = inhibition) at 1uM": -1.02}, {"smiles": "O=C(NNC(=O)c1cc(Br)c(Br)s1)c1csc(N2CCOCC2)n1", "hERG current change (%, negative = inhibition) at 1uM": 8.08}, {"smiles": "COc1ccc(N2CCN(CCNC(=O)c3ccc4c(c3)[nH]c(=S)n3c5ccccc5nc43)CC2)cc1", "hERG current change (%, negative = inhibition) at 1uM": 5.57}, {"smiles": "CCN(CC)C(=O)COc1ccc(N(C)S(=O)(=O)c2ccc(NC(C)=O)cc2)cc1", "hERG current change (%, negative = inhibition) at 1uM": -1.39}, {"smiles": "CSc1nc(N2CCOCC2)nc2ccc(C)cc12", "hERG current change (%, negative = inhibition) at 1uM": 9.17}, {"smiles": "CCOCCc1nnc(NC(=O)CS(=O)(=O)c2ccc(C)cc2)s1", "hERG current change (%, negative = inhibition) at 1uM": 6.45}, {"smiles": "Cc1ccc(C2=NN3C(=O)c4ccccc4C3C2)cc1", "note": "(stereo not shown)", "hERG current change (%, negative = inhibition) at 1uM": -2.74}, {"smiles": "COC(=O)c1cc(C)sc1NC(=O)C1CC=CCC1C(=O)O", "note": "(stereo not shown)", "hERG current change (%, negative = inhibition) at 1uM": -4.16}, {"smiles": "O=C(O)/C=C\\C(=O)NCc1ccccc1", "hERG current change (%, negative = inhibition) at 1uM": 12.2}, {"smiles": "CCOC(=O)c1c(C(=O)OCC)c(C)n(CCc2ccccc2)c1C", "hERG current change (%, negative = inhibition) at 1uM": 8.67}, {"smiles": "COc1ccccc1OCCNC(=O)c1ccco1", "hERG current change (%, negative = inhibition) at 1uM": 8.6}, {"smiles": "CCOc1ccccc1NC(=O)CNC(=O)Cc1ccccc1", "hERG current change (%, negative = inhibition) at 1uM": 6.27}, {"smiles": "CN(C)c1ccc(NC(=O)CSc2nc(C3CC3)nc3ccccc23)cc1", "hERG current change (%, negative = inhibition) at 1uM": 11.8}, {"smiles": "C=CCc1c(C)[nH]c2ccc(C)cc2c1=O", "hERG current change (%, negative = inhibition) at 1uM": 23.6}, {"smiles": "CCOc1ccc(C2=CC(c3ccccc3)n3ncnc3N2)cc1", "note": "(stereo not shown)", "hERG current change (%, negative = inhibition) at 1uM": 0.429}, {"smiles": "Cc1cc(C)c2nc(C(F)(F)F)nc(NCCCN3CCCC3=O)c2c1", "hERG current change (%, negative = inhibition) at 1uM": 7.71}, {"smiles": "C[C@H](NCc1c[nH]c2ccccc12)c1ccccc1", "hERG current change (%, negative = inhibition) at 1uM": 13}, {"smiles": "CCOC(=O)c1cc(C#N)c(N2CCN(c3ccccn3)CC2)nc1-c1ccccc1", "hERG current change (%, negative = inhibition) at 1uM": 7.83}, {"smiles": "COc1ccc(C(=O)CSc2nccn2C)cc1", "hERG current change (%, negative = inhibition) at 1uM": 22.7}, {"smiles": "C/C(=N\\NC(=S)Nc1cccc(C)c1)c1cc2ccccc2o1", "hERG current change (%, negative = inhibition) at 1uM": 6.89}, {"smiles": "COC(=O)c1cccc(N(CC(=O)NC2CCCC2)C(=O)CCC(=O)Nc2cc(C)on2)c1", "hERG current change (%, negative = inhibition) at 1uM": 16.8}, {"smiles": "O=C(O)/C=C/c1ccc(S(=O)(=O)NCc2cccnc2)cc1", "hERG current change (%, negative = inhibition) at 1uM": 10.1}, {"smiles": "CCC(CC)C(=O)N1CCCC(c2nc(-c3cccs3)no2)C1", "note": "(stereo not shown)", "hERG current change (%, negative = inhibition) at 1uM": 15.4}, {"smiles": "CCOc1ccc(NC(=O)CNC(=O)c2ccc(OC)c(OC)c2)cc1", "hERG current change (%, negative = inhibition) at 1uM": 5.55}, {"smiles": "COc1ccc(CCNC(=O)c2[nH]c(C)c(C(C)=O)c2C)cc1", "hERG current change (%, negative = inhibition) at 1uM": 10.9}, {"smiles": "O=S(=O)(/N=C(\\c1ccccc1)N1CCOCC1)c1ccc(Cl)cc1", "hERG current change (%, negative = inhibition) at 1uM": 4.74}, {"smiles": "O=C(CSc1ncn[nH]1)NCCOc1ccccc1", "hERG current change (%, negative = inhibition) at 1uM": 13.7}, {"smiles": "COc1ccc(S(=O)(=O)NC(N)=NCCc2ccc(OC)c(OC)c2)cc1C", "hERG current change (%, negative = inhibition) at 1uM": 3.75}, {"smiles": "CC1CC1C(=O)N(C)CC(=O)Nc1ccc(Cl)c(C(F)(F)F)c1", "note": "(stereo not shown)", "hERG current change (%, negative = inhibition) at 1uM": 3.8}, {"smiles": "O=C(C1CCCC1)N1CCC(CO)(Cc2ccccc2Cl)CC1", "hERG current change (%, negative = inhibition) at 1uM": -4.01}, {"smiles": "O=C(Oc1ccc(/C=N/Nc2nc(N3CCCCC3)nc(N3CCCCC3)n2)cc1)c1ccco1", "hERG current change (%, negative = inhibition) at 1uM": 14.6}, {"smiles": "CCC(=NC)C1=C(O)CC(c2ccccc2)CC1=O", "note": "(stereo not shown)", "hERG current change (%, negative = inhibition) at 1uM": 18.7}, {"smiles": "CC(C)(C)c1csc(NC(=O)c2cccnc2Cl)n1", "hERG current change (%, negative = inhibition) at 1uM": -3.19}, {"smiles": "Clc1ccc(CSc2nnc(CN3CCOCC3)n2-c2ccccc2)cc1Cl", "hERG current change (%, negative = inhibition) at 1uM": -23.1}, {"smiles": "O=C(N/N=C/c1ccccc1O)NC12CC3CC(CC(C3)C1)C2", "hERG current change (%, negative = inhibition) at 1uM": 7.05}, {"smiles": "Nc1ccnn1-c1ccccc1", "hERG current change (%, negative = inhibition) at 1uM": 10.2}, {"smiles": "Nc1cc(N)nc(SCc2cccc(F)c2)n1", "hERG current change (%, negative = inhibition) at 1uM": 17.8}, {"smiles": "CC(C)C(NC(=O)c1ccccc1)C(=O)NCCc1ccccc1", "note": "(stereo not shown)", "hERG current change (%, negative = inhibition) at 1uM": 8.25}, {"smiles": "CSc1ccc(/C=C(\\NC(=O)c2ccc(C)cc2)C(=O)NN)cc1", "hERG current change (%, negative = inhibition) at 1uM": 12.3}, {"smiles": "O=C(O)C1OC(Oc2cc3oc(-c4ccccc4)cc(=O)c3c(O)c2O)C(O)C(O)C1O", "note": "(stereo not shown)", "hERG current change (%, negative = inhibition) at 1uM": 12.3}, {"smiles": "CC(C)c1ccc(NC(=O)NC2CC3CCC(C2)N3Cc2cccs2)cc1", "note": "(stereo not shown)", "hERG current change (%, negative = inhibition) at 1uM": 7.97}, {"smiles": "Cc1ccc(C(=O)N/N=C\\C=C\\c2ccc(Br)cc2)cn1", "hERG current change (%, negative = inhibition) at 1uM": -25.9}, {"smiles": "COc1ccc(S(=O)(=O)NCc2cccnc2)cc1OC", "hERG current change (%, negative = inhibition) at 1uM": 12.8}, {"smiles": "CSCCC(NC(=O)c1cccc(C)c1)C(=O)OCC(=O)Nc1c(C)nn(-c2ccccc2)c1C", "note": "(stereo not shown)", "hERG current change (%, negative = inhibition) at 1uM": 2.77}, {"smiles": "CCOC(=O)c1ccc(NC(=O)c2nc[nH]c2C(=O)N2CCN(c3ccccc3)CC2)cc1", "hERG current change (%, negative = inhibition) at 1uM": 12}, {"smiles": "Cc1ccc(-c2[nH]nc3c2C(c2ccccc2OC(=O)N2CCOCC2)C(C#N)=C(N)O3)cc1", "note": "(stereo not shown)", "hERG current change (%, negative = inhibition) at 1uM": -1.8}, {"smiles": "COCc1cc(CN2CCN(Cc3ccsc3)C(CCO)C2)ccc1OC", "note": "(stereo not shown)", "hERG current change (%, negative = inhibition) at 1uM": -56.6}, {"smiles": "COc1ccccc1/C=C/C(=O)OCC(=O)c1cc(C)n(C)c1C", "hERG current change (%, negative = inhibition) at 1uM": 1.53}, {"smiles": "CN(CC(=O)Nc1ccccc1Br)C(=O)c1cc2c(s1)CCCCC2", "hERG current change (%, negative = inhibition) at 1uM": 10.9}, {"smiles": "C=CCn1c(SCc2c(C(=O)OC)sc(N)c2C(=O)OC)nnc1-c1ccc(Cl)cc1", "hERG current change (%, negative = inhibition) at 1uM": -10.9}, {"smiles": "Cl.O=c1cc[nH]c2c1ccc1c(=O)cc[nH]c12", "hERG current change (%, negative = inhibition) at 1uM": 17.1}, {"smiles": "O=[N+]([O-])c1ccc(-c2nc(Nc3cccc(O)c3)c3ccccc3n2)cc1", "hERG current change (%, negative = inhibition) at 1uM": 13.5}, {"smiles": "c1ccc2[nH]c(CN3CCN(c4ncnc5c4oc4ccccc45)CC3)nc2c1", "hERG current change (%, negative = inhibition) at 1uM": -18.1}, {"smiles": "NS(=O)(=O)c1ccc(CCNC(=O)c2ccccc2F)cc1", "hERG current change (%, negative = inhibition) at 1uM": 4.79}]}]}
